According to patent US20120005782A1 (University of California, published 2012):

Molecular target: T1, human α1-antitrypsin (authentic human AAT standard, Calbiochem) (human, UniProt P01009)
T1 construct: Commercial human AAT used as the standard in all assays; also called hAAT; human AAT control
Experiment: band shift assay: human AAT standard incubated with PPE, SDS-PAGE, anti-AAT immunoblot (FIG. 4B)
Method: Proteins were denatured by boiling 40 μl supernatant samples for five minutes in 10 μl sodium dodecyl sulfate (SDS) sample buffer resulting in a final buffer concentration of 0.4% (vol/vol) SDS, 62.5 mM Tris-HCl (pH 8.2), 10% glycerol, 5 mM EDTA and 0.01% (wt/vol) bromophenol blue. A 15 μl aliquot of each denatured sample was fractionated by sodium dodecyl sulfate-polyacrylamide gel electrophoresis (SDS-PAGE) on 12% Tris-HCl precast gels (BioRad) carried out in a Mini-PROTEAN 3 electrophoresis cell (BioRad) for 35 min at 200 V. Proteins were then blotted onto 0.45 μm nitrocellulose membranes (GE Osmonics, Minnetonka, Minn.) for 85 min at 120 V using an electroblot Mini Trans-Blot transfer cell (BioRad). Immunoblot analysis was then performed according to the procedure described elsewhere (Huang et al., 2001) with the only alteration being the vendor of the secondary antibody used in this study (Southern Biotechnology, Birmingham, Ala.). Chemiluminescence detection was used for the CMV CP immunoblot. Human AAT (Calbiochem, La Jolla, Calif.) was used as the standard for all assays performed.
Formation of a covalent complex between AAT and porcine pancreatic elastase (PPE) (Wilczynska et al., 1997) was examined by visual inspection of functional AAT by immunoblot analysis. […] The complex was then analyzed using the same immunoblot analysis previously described.

B1: porcine pancreatic elastase (PPE) (enzyme, UniProt P00772 27-266, looked up)
chain: VVGGTEAQRNSWPSQISLQYRSGSSWAHTCGGTLIRQNWVMTAAHCVDRELTFRVVVGEHNLNQNDGTEQYVGVQKIVVHPYWNTDDVAAGYDIALLRLAQSVTLNSYVQLGVLPRAGTILANNSPCYITGWGLTRTNGQLAQTLQQAYLPTVDYAICSSSSYWGSTVKNSMVCAGGDGVRSGCQGDSGGPLHCLVNGQYAVHGVTSFVSRLGCNVTRKPTVFTRVSAYISWINNVIASN
notes: Commercial enzyme; forms a covalent complex with functional AAT in the band shift assay
B1: binds.
